Test results reported in the supplement of paper PMC12645437, “Orthogonal IMiD-Degron Pairs Induce Selective Protein Degradation in Cells” (ACS Chemical Biology, 2025).
The other results are listed elsewhere or left out.

biological target: no compound (DMSO); test: log2 fold change of degron read counts, EGFP-low vs EGFP+ sorted cells; higher = lower degron-EGFP level without compound (poor expression or instability); conditions: compound: DMSO control; 18 h
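Further: jurkat cells carrying a lentiviral library of mutant zinc finger degrons fused to EGFP plus mCherry, mCherry+ cells FACS sorted, degron abundance counted by next-generation sequencing.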

Question: How did the “log2 fold change of degron read counts” value turn out when FVCEVCGACFTQKGNLLRHIKL was run?
Answer: -2.37

Question: FDCPQCGAGFTQKGNLLRHIKL was tested. Which “log2 fold change of degron read counts” value did it give?
Answer: -1.38

Question: Which “log2 fold change of degron read counts” value does the source give for FFCNQCGAQFTQKGNLLRHIKL here?
Answer: -0.161

Question: FHCDQCGAKFTQKGNLLRHIKL was tested. Which “log2 fold change of degron read counts” value did it give?
Answer: -0.358

Question: With FRCNVCGAPFTQKGNLLRHIKL as the sequence, how does the “log2 fold change of degron read counts” value read?
Answer: 0.27

Question: How did the “log2 fold change of degron read counts” value turn out when FRCDQCGARFTQKGNLLRHIKL was run?
Answer: -1.29

Question: Which “log2 fold change of degron read counts” value does the source give for FRCEVCGAWFTQKGNLLRHIKL here?
Answer: -0.117

Question: How did the “log2 fold change of degron read counts” value turn out when FECNQCGRKFTQKGNLLRHIKL was run?
Answer: -1.89

Question: FCCNQCGRNFTQKGNLLRHIKL was tested. Which “log2 fold change of degron read counts” value did it give?
Answer: 0.03

Question: FMCNQCGATFTQKGNLLRHIKL was tested. Which “log2 fold change of degron read counts” value did it give?
Answer: -1.53

Question: With FSCPICGANFTQKGNLLRHIKL as the sequence, how does the “log2 fold change of degron read counts” value read?
Answer: -0.0366

Question: For FACPVCGAMFTQKGNLLRHIKL, which “log2 fold change of degron read counts” value is on record?
Answer: 0.0162

Question: FLCDICGAPFTQKGNLLRHIKL was tested. Which “log2 fold change of degron read counts” value did it give?
Answer: -0.801

Question: For LWCNQCGFGCTQKGNLLRHIKL, which “log2 fold change of degron read counts” value is on record?
Answer: 1.67

Question: FICEICGRIFTQKGNLLRHIKL was tested. Which “log2 fold change of degron read counts” value did it give?
Answer: 0.0282

Question: How did the “log2 fold change of degron read counts” value turn out when FNCPQCGAMFTQKGNLLRHIKL was run?
Answer: -0.787

Question: How did the “log2 fold change of degron read counts” value turn out when FMCEICGRMFTQKGNLLRHIKL was run?
Answer: -0.99

Question: With FYCDVCGAYFTQKGNLLRHIKL as the sequence, how does the “log2 fold change of degron read counts” value read?
Answer: 0.044

Question: For FNCPICGRYFTQKGNLLRHIKL, which “log2 fold change of degron read counts” value is on record?
Answer: 0.667

Question: FLCPQCGAYFTQKGNLLRHIKL was tested. Which “log2 fold change of degron read counts” value did it give?
Answer: -0.178

Question: With FLCSVCGHCFTQKGNLLRHIKL as the sequence, how does the “log2 fold change of degron read counts” value read?
Answer: -0.138

Question: For FYCPICGRFFTQKGNLLRHIKL, which “log2 fold change of degron read counts” value is on record?
Answer: -1.57

Question: For FICEICGREFTQKGNLLRHIKL, which “log2 fold change of degron read counts” value is on record?
Answer: -2.9

Question: Which “log2 fold change of degron read counts” value does the source give for FVCEQCGAFFTQKGNLLRHIKL here?
Answer: 0.00323

Question: FFCDICGADFTQKGNLLRHIKL was tested. Which “log2 fold change of degron read counts” value did it give?
Answer: -2.46

Question: Which “log2 fold change of degron read counts” value does the source give for FECSVCGHQFTQKGNLLRHIKL here?
Answer: -1.64

Question: Which “log2 fold change of degron read counts” value does the source give for FECEVCGAYFTQKGNLLRHIKL here?
Answer: -1.01

Question: FHCPQCGAHFTQKGNLLRHIKL was tested. Which “log2 fold change of degron read counts” value did it give?
Answer: -0.713

Question: FGCEICGHVFTQKGNLLRHIKL was tested. Which “log2 fold change of degron read counts” value did it give?
Answer: -0.453

Question: How did the “log2 fold change of degron read counts” value turn out when FLCEICGASFTQKGNLLRHIKL was run?
Answer: -1.6

Question: Which “log2 fold change of degron read counts” value does the source give for FYCNQCGAHFTQKGNLLRHIKL here?
Answer: -0.447

Question: With FYCNQCGAQFTQKGNLLRHIKL as the sequence, how does the “log2 fold change of degron read counts” value read?
Answer: -0.323

Question: Which “log2 fold change of degron read counts” value does the source give for FYCDVCGAEFTQKGNLLRHIKL here?
Answer: -1.91

Question: How did the “log2 fold change of degron read counts” value turn out when FNCPVCGAQFTQKGNLLRHIKL was run?
Answer: -0.322

Question: For FMCPVCGADFTQKGNLLRHIKL, which “log2 fold change of degron read counts” value is on record?
Answer: -1.32

Question: With FMCNVCGARFTQKGNLLRHIKL as the sequence, how does the “log2 fold change of degron read counts” value read?
Answer: -0.49

Question: For FRCDQCGAFFTQKGNLLRHIKL, which “log2 fold change of degron read counts” value is on record?
Answer: -0.469

Question: Which “log2 fold change of degron read counts” value does the source give for FGCPICGAQFTQKGNLLRHIKL here?
Answer: -0.201

Question: FNCDVCGAFFTQKGNLLRHIKL was tested. Which “log2 fold change of degron read counts” value did it give?
Answer: -0.293

Question: How did the “log2 fold change of degron read counts” value turn out when FQCEICGHIFTQKGNLLRHIKL was run?
Answer: -1.27

Question: For FHCEQCGAWFTQKGNLLRHIKL, which “log2 fold change of degron read counts” value is on record?
Answer: -1.33

Question: Which “log2 fold change of degron read counts” value does the source give for FRCEICGHQFTQKGNLLRHIKL here?
Answer: -1.66

Question: FCCNQCGRVFTQKGNLLRHIKL was tested. Which “log2 fold change of degron read counts” value did it give?
Answer: 0.0554

Question: Which “log2 fold change of degron read counts” value does the source give for FCCDQCGAMFTQKGNLLRHIKL here?
Answer: -1.13

Question: FFCEQCGATFTQKGNLLRHIKL was tested. Which “log2 fold change of degron read counts” value did it give?
Answer: -1.01

Question: FGCEQCGASFTQKGNLLRHIKL was tested. Which “log2 fold change of degron read counts” value did it give?
Answer: -1.03

Question: Which “log2 fold change of degron read counts” value does the source give for FHCEICGHEFTQKGNLLRHIKL here?
Answer: -1.54

Question: For FYCEQCGAEFTQKGNLLRHIKL, which “log2 fold change of degron read counts” value is on record?
Answer: -2.85

Question: For FVCNQCGARFTQKGNLLRHIKL, which “log2 fold change of degron read counts” value is on record?
Answer: -0.184

Question: For FECDICGAMFTQKGNLLRHIKL, which “log2 fold change of degron read counts” value is on record?
Answer: -1.68
